Read-outs that look alike come from different tables or passages of the source. At least one compound was matched to its structure with a doubt left.
Test system: Ad2 variant pre-mRNAs spliced in HeLa S3 nuclear extracts
Test: In vitro splicing assay (IVS), RT-qPCR of spliced product
Format: biochemical
Conditions: for IC50: geometric mean; for Ratio Ad2.1/2.2: ratio of IVS IC50 Ad2.1 to Ad2.2
Procedure: Batch immobilization of anti-SF3B1 antibody (MBL) to anti-mouse PVT SPA scintillation beads (PerkinElmer) was prepared as follows: for every 2.5 mg of nuclear extracts, 5 μg anti-SF3B1 antibody and 1.5 mg of beads were mixed in 150 μl PBS. The antibody-bead mixture was incubated for 30 min at RT and centrifuged at 18,000 g for 5 min. 150 μl PBS was used to resuspend every 1.5 mg antibody-bead mixture. The beads were suspended and added to the prepared nuclear extracts. The slurry was incubated for 2 h at 4° C. with gentle mixing. The beads were then collected by centrifuging at 18,000 g for 5 min, and washed twice with PBS+0.1% Triton X-100. After a final centrifugation step, every 1.5 mg of beads was suspended with 150 μl of PBS. The SF3b complexes were tested for [^3H]-labelled pladienolide probe binding ([^3H]—PB), synthesized as previously described (Kotake et al., 2007). 100 μl binding reactions were prepared with 50 μl bead slurry and by adding varying concentrations of PB or PB—OH, and after 30 min pre-incubation, 2.5 nM [^3H]—PB was added. The mixture was incubated for 30 min, and luminescence signals were read using a MicroBeta2 Plate Counter (PerkinElmer). Prism 6 (Graphpad) was used for non-linear regression curve fitting of the data. • a. • b. HeLa nuclear extract preparation (for in vitro splicing modulation assay below) • c. HeLa S3 cell pellets were resuspended in hypotonic buffer (10 mM HEPES pH 7.9, 1.5 mM MgCl2, 10 mM KCl, 0.2 mM PMSF, and 0.5 mM DTT) and the suspension was brought up to a total of 5 packed cell volume (PCV). After centrifugation, the supernatant was discarded, and the cells were brought up to 3 PCV with hypotonic buffer and incubated on ice for 10 minutes. Cells were lysed using a dounce homogenizer and then centrifuged. The supernatant was discarded, and the pellet was resuspended with ½ packed nuclear volume (PNV) of low salt buffer (20 mM HEPES pH 7.9, 1.5 mM MgCl2, 20 mM KCl, 0.2 mM EDTA, 25% glycerol, 0.2 mM PMSF, 0.5 mM DTT), followed by ½ PNV of high salt buffer (same as low salt buffer except 1.4 M KCl was used). The nuclei were gently mixed for 30 minutes before centrifuging. The supernatant (nuclear extract) was then dialyzed into storage buffer (20 mM HEPES pH 7.9, 100 mM KCl, 0.2 mM EDTA, 20% glycerol, 0.2 mM PMSF, 0.5 mM DTT). Protein concentration was determined using NanoDrop 8000 UV-Vis spectrophotometer (ThermoFisher Scientific). • d. In vitro splicing assay (IVS)
All Ad2-derived (Pellizzoni et al., 1998) sequences were cloned into pcDNA3.1(+) vector (Promega) using 5′ EcoRI and 3′ XbaI restriction sites. The plasmids were linearized using XbaI and used as DNA templates in the in vitro transcription reactions. The FtzΔi intron-less plasmid (Luo and Reed, 1999) was linearized using EcoRI. All RNAs were in vitro transcribed and then purified using MEGAScript T7 (Invitrogen) and MegaClear (Invitrogen) kits, respectively. For splicing reactions using Ad2 variant pre-mRNAs, […] reactions were prepared using 8 μg nuclear extracts prepared from HeLa S3, 2 ng pre-mRNA, 0.2 ng FTZΔi, and varying concentrations of exemplary payloads or DMSO. After a 15 minute pre-incubation at 30° C., 1 μL splicing activation buffer (0.5 mM ATP, 20 mM creatine phosphate, 1.6 mM MgCl2) was added, and the reactions were incubated for 90 minutes at 30° C. The reactions were then quenched with 13 μL it DMSO, and 25 nL was used for RT-qPCR. RT-qPCR reactions were prepared using TaqMan RNA-to-CT 1-step kit (Life Technologies), RNA from splicing reactions, Ad2 (forward: […]; reverse: […]; probe: […]) and Ftz (forward: […]; reverse: […]; probe: […]) mRNA primer-probe sets. Prism 6 (Graphpad) was used for non-linear regression curve fitting of the formed spliced product and normalized to the control (DMSO) sample.

[1] = Ad2.1 pre-mRNA substrate, read-out: qPCR-IVS-ATS GMean IC50 (nM) Ad2.1
[2] = Ad2.2 pre-mRNA substrate, read-out: qPCR-IVS-ATS GMean IC50 (nM) Ad2.2

Structure (SMILES) | IC50 [1] | IC50 [2] | Ratio Ad2.1/2.2
C/C(=C\c1cc(F)cc(Cl)c1)[C@H]1OC(=O)C[C@H](O)CC[C@H](C)[C@@H](OC(=O)N2CCN(C)CC2)/C=C/[C@@H]1C [Compound 167] | > 25000 nM | 46.5 nM | –
C/C(=C\c1cc(F)cc(N2CCN(S(=O)(=O)c3cn(C)cn3)CC2)c1)[C@H]1OC(=O)C[C@H](O)CC[C@H](C)[C@@H](OC(=O)N2CCN(C)CC2)/C=C/[C@@H]1C [Compound 113] | 29.3 nM | 18.8 nM | –
C/C(=C\c1cc(F)c2nnn(CC3CCOCC3)c2c1)[C@H]1OC(=O)C[C@H](O)CC[C@H](C)[C@@H](OC(=O)N2CCN(C)CC2)/C=C/[C@@H]1C [Compound 148] | 12.4 nM | 3.57 nM | –
C/C(=C\c1cc(F)cc(N2CCN(C(=O)Cn3cccn3)CC2)c1)[C@H]1OC(=O)C[C@H](O)CC[C@H](C)[C@@H](OC(=O)N2CC[C@H](N(C)C)C2)/C=C/[C@@H]1C [Compound 228, [(2S,3S,4E,6R,7S,10R)-2-[(E)-1-[3-fluoro-5-[4-(2-pyrazol-1-ylacetyl)piperazin-1-yl]phenyl]prop-1-en-2-yl]-10-hydroxy-3,7-dimethyl-12-oxo-1-oxacyclododec-4-en-6-yl] (3S)-3-(dimethylamino)pyrrolidine-1-carboxylate] | 6.31 nM | 5.33 nM | 1.184
C/C(=C\c1cc(F)cc(N2CCN(C(=O)Cn3cccn3)CC2)c1)[C@H]1OC(=O)C[C@H](O)CC[C@H](C)[C@@H](OC(=O)N2CCC(N(C)C)C2)/C=C/[C@@H]1C (stereo in doubt) [Compound 227, [(2S,3S,4E,6R,7S,10R)-2-[(E)-1-[3-fluoro-5-[4-(2-pyrazol-1-ylacetyl)piperazin-1-yl]phenyl]prop-1-en-2-yl]-10-hydroxy-3,7-dimethyl-12-oxo-1-oxacyclododec-4-en-6-yl] (3S)-3-(dimethylamino)pyrrolidine-1-carboxylate] | 5.85 nM | 10.3 nM | 0.569
C/C(=C\C1=CCCN(C(=O)OC(C)(C)C)C1)[C@H]1OC(=O)C[C@H](O)CC[C@H](C)[C@@H](OC(=O)N2CCN(C)CC2)/C=C/[C@@H]1C [Compound 219, [(2S,3S,4E,6R,7S,10R)-10-hydroxy-3,7-dimethyl-2-[(E)-1-[1-[(2-methylpropan-2-yl)oxycarbonyl]-3,6-dihydro-2H-pyridin-5-yl]prop-1-en-2-yl]-12-oxo-1-oxacyclododec-4-en-6-yl] 4-methylpiperazine-1-carboxylate] | > 25000 nM | 71.5 nM | 349.744
C/C(=C\c1cc(F)cc(N2CCN(S(=O)(=O)c3cccnc3)CC2)c1)[C@H]1OC(=O)C[C@H](O)CC[C@H](C)[C@@H](OC(=O)N2CCN(C)CC2)/C=C/[C@@H]1C [Compound 112] | 36.6 nM | 24.1 nM | –
C/C(=C\c1cc(F)cc(N2CCN(S(=O)(=O)c3cnn(C)c3)CC2)c1)[C@H]1OC(=O)C[C@H](O)CC[C@H](C)[C@@H](OC(=O)N2CCN(C)CC2)/C=C/[C@@H]1C [Compound 111] | 69.8 nM | 27.3 nM | –
C/C(=C\c1cccc(COC(=O)N2CCC3(COC3)C2)c1)[C@H]1OC(=O)C[C@H](O)CC[C@H](C)[C@@H](OC(=O)N2CCN(C)CC2)/C=C/[C@@H]1C [Compound 255, [3-[(E)-2-[(2S,3S,4E,6R,7S,10R)-10-hydroxy-3,7-dimethyl-6-(4-methylpiperazine-1-carbonyl)oxy-12-oxo-1-oxacyclododec-4-en-2-yl]prop-1-enyl]phenyl]methyl 2-oxa-7-azaspiro[3.4]octane-7-carboxylate] | > 25000 nM | 89.7 nM | 278.618
COCCN1CCN(c2cc(F)cc(/C=C(\C)[C@H]3OC(=O)C[C@H](O)CC[C@H](C)[C@@H](OC(=O)N4CCN(C)CC4)/C=C/[C@@H]3C)c2)CC1=O [Compound 105] | 68.8 nM | 21.8 nM | –
C/C(=C\c1cccc(S(=O)(=O)N2CCC(F)(F)C2)c1)[C@H]1OC(=O)C[C@H](O)CC[C@H](C)[C@@H](OC(=O)N2CCN(C)CC2)/C=C/[C@@H]1C [Compound 204, [(2S,3S,4E,6R,7S,10R)-2-[(E)-1-[3-(3,3-difluoropyrrolidin-1-yl)sulfonylphenyl]prop-1-en-2-yl]-10-hydroxy-3,7-dimethyl-12-oxo-1-oxacyclododec-4-en-6-yl] 4-methylpiperazine-1-carboxylate] | > 25000 nM | 114 nM | 219.873
